Test results reported in the supplement of paper PMC10037445.
“And” between values parts separate entries of the source, which are not always exact repeats. Identical values can stand only once. ± gives the standard deviation of the averaged measurements. The full ranking holds about 2,900 compounds; the median of “NF-kB SEAP reporter activity, fold change vs agonist alone” is about 0.99, and the highest 2% start at about 2.6. Some of the results follow.

How the values were obtained:
[1] = system: RAW-Dual; test: NF-kB SEAP reporter activity, fold change vs agonist alone; higher = enhanced NF-kB activity
In short: (§1)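 RAW-Dual macrophages were seeded in DMEM at 50,000 cells/well in 384-well plates, given 50 nL of library stock by pin tool, and given a PRR agonist 1 h later. Plates were held at 37 °C, 5% CO2 for 20 hours, after which supernatant was read for IRF by QuantiLuc luminescence and for NF-κB by QuantiBlue absorbance at 620 nm. Reporter activity is expressed as fold change over wells that received agonist alone. A well was called cytotoxic when IncuCyte confluency fell below 70% of agonist controls in both mask sets.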

[2] = system: RAW-Dual; test: NF-kB SEAP reporter activity, fold change vs agonist alone; cytotoxicity flag (confluency mask): not cytotoxic; higher = enhanced NF-kB activity
In short: as §1

[3] = system: RAW-Dual; test: NF-kB SEAP reporter activity, fold change vs agonist alone; cytotoxicity flag (confluency mask): cytotoxic (confluency <70% of control); higher = enhanced NF-kB activity
In short: as §1

[4] = library stock concentration (final ~1000-fold dilution): 10 mM, cytotoxicity flag (confluency mask): not cytotoxic, agonist: Imiquimod (TLR7) […]
[5] = library stock concentration (final ~1000-fold dilution): 10 mM, cytotoxicity flag (confluency mask): not cytotoxic, agonist: MPLA (TLR4) […]
[6] = agonist: ODN 1826 (TLR9) 0.5 ug/mL
[7] = agonist: Pam2CSK4 (TLR2/6) 0.1 ug/mL
[8] = agonist: Pam3CSK4 (TLR2/1) 0.1 ug/mL
[9] = library stock concentration (final ~1000-fold dilution): 10 mM, cytotoxicity flag (confluency mask): cytotoxic (confluency <70% of control), agonist: Imiquimod (TLR7) […]
[10] = library stock concentration (final ~1000-fold dilution): 10 mM, cytotoxicity flag (confluency mask): cytotoxic (confluency <70% of control), agonist: MPLA (TLR4) […]

CN1CCN(C2=Nc3ccccc3Oc3ccc(Cl)cc32)CC1.O=C(O)CCC(=O)O was tested. Which “NF-kB SEAP reporter activity” value [1, 4] did it give?
Its value is 1.02.

What about the “NF-kB SEAP reporter activity” value [1, 5] of the same compound?
Its value is 1.04.

Which results are given for CN1CCN(C2=Nc3ccccc3Oc3ccc(Cl)cc32)CC1.O=C(O)CCC(=O)O (library stock concentration (final ~1000-fold dilution): 10 mM)?
NF-kB SEAP reporter activity ([2]; agonist: LPS (TLR4) 0.1 ug/mL): 1.05; NF-kB SEAP reporter activity [2, 6]: 0.754; NF-kB SEAP reporter activity [2, 7]: 0.645; NF-kB SEAP reporter activity [2, 8]: 0.886

CCN(CC)CC(O)CNc1ccc(NCC2CO2)c2c1C(=O)c1ccccc1C2=O (stereo not given) (library stock concentration (final ~1000-fold dilution): 10 mM) was tested. Which “NF-kB SEAP reporter activity” value ([3]; agonist: LPS (TLR4) 0.1 ug/mL) did it give?
Its value is 0.382.

And the “NF-kB SEAP reporter activity” value [3, 6]?
Its value is 0.203.

What about the “NF-kB SEAP reporter activity” value [3, 7] of the same compound?
The value was 0.134.

And the “NF-kB SEAP reporter activity” value [3, 8]?
The value was 0.195.

How did the “NF-kB SEAP reporter activity” value [1, 9] turn out when CCN(CC)CC(O)CNc1ccc(NCC2CO2)c2c1C(=O)c1ccccc1C2=O (stereo not given) was run?
The value was 0.314.

And the “NF-kB SEAP reporter activity” value [1, 10]?
The value was 0.521.

How did the “NF-kB SEAP reporter activity” value ([2]; agonist: LPS (TLR4) 0.1 ug/mL) turn out when O=C1NC(=O)/C(=C\c2ccc(-c3ccc(F)cc3)o2)S1 (library stock concentration (final ~1000-fold dilution): 10 mM) was run?
Its value is 0.676.

And the “NF-kB SEAP reporter activity” value [2, 6]?
The value was 0.6.

What about the “NF-kB SEAP reporter activity” value [2, 7] of the same compound?
The value was 0.477.

What about the “NF-kB SEAP reporter activity” value [2, 8] of the same compound?
Its value is 0.683.

For O=C1NC(=O)/C(=C\c2ccc(-c3ccc(F)cc3)o2)S1, which “NF-kB SEAP reporter activity” value [1, 4] is on record?
Its value is 0.656.

What about the “NF-kB SEAP reporter activity” value [1, 5] of the same compound?
The value was 0.708.

Which results are given for Cl.O=c1[nH]ccc2c(S(=O)(=O)N3CCCNCC3)cccc12 (library stock concentration (final ~1000-fold dilution): 10 mM)?
NF-kB SEAP reporter activity ([2]; agonist: LPS (TLR4) 0.1 ug/mL): 1.22; NF-kB SEAP reporter activity [2, 6]: 0.968; NF-kB SEAP reporter activity [2, 7]: 1.05; NF-kB SEAP reporter activity [2, 8]: 1.23

How did the “NF-kB SEAP reporter activity” value [1, 4] turn out when Cl.O=c1[nH]ccc2c(S(=O)(=O)N3CCCNCC3)cccc12 was run?
Its value is 1.

What about the “NF-kB SEAP reporter activity” value [1, 5] of the same compound?
Its value is 0.986.

Which “NF-kB SEAP reporter activity” value ([2]; agonist: LPS (TLR4) 0.1 ug/mL) does the source give for O=[N+]([O-])c1cncn1CCN1CCOCC1 (library stock concentration (final ~1000-fold dilution): 10 mM) here?
The value was 0.953.

What about the “NF-kB SEAP reporter activity” value [2, 6] of the same compound?
The value was 0.947.

What about the “NF-kB SEAP reporter activity” value [2, 7] of the same compound?
The value was 1.02.

And the “NF-kB SEAP reporter activity” value [2, 8]?
Its value is 0.84.

How did the “NF-kB SEAP reporter activity” value [1, 4] turn out when O=[N+]([O-])c1cncn1CCN1CCOCC1 was run?
Its value is 0.914.

What about the “NF-kB SEAP reporter activity” value [1, 5] of the same compound?
Its value is 1.09.

Which results are given for C=CC(=O)Nc1cc(Nc2nccc(-c3c[nH]c4ccccc34)n2)c(OC)cc1N(C)CCN(C)C?
NF-kB SEAP reporter activity [1, 4]: 0.96; NF-kB SEAP reporter activity [1, 5]: 1.03

C=CC(=O)Nc1cc(Nc2nccc(-c3c[nH]c4ccccc34)n2)c(OC)cc1N(C)CCN(C)C (library stock concentration (final ~1000-fold dilution): 10 mM) was tested. Which “NF-kB SEAP reporter activity” value ([2]; agonist: LPS (TLR4) 0.1 ug/mL) did it give?
The value was 1.46.

What about the “NF-kB SEAP reporter activity” value [2, 6] of the same compound?
Its value is 0.861.

And the “NF-kB SEAP reporter activity” value [2, 7]?
Its value is 0.904.

What about the “NF-kB SEAP reporter activity” value [2, 8] of the same compound?
Its value is 1.22.

Which results are given for Br.Br.Br.Br.Br.Br.c1ccc(CNCc2ccc(CN3CCCNCCNCCCNCC3)cc2)nc1?
NF-kB SEAP reporter activity ([1]; library stock concentration (final ~1000-fold dilution): 10 mM water, cytotoxicity flag (confluency mask): not cytotoxic, agonist: Imiquimod (TLR7) […]): 0.848; NF-kB SEAP reporter activity ([1]; library stock concentration (final ~1000-fold dilution): 10 mM water, cytotoxicity flag (confluency mask): not cytotoxic, agonist: MPLA (TLR4) […]): 0.806

Which results are given for Br.Br.Br.Br.Br.Br.c1ccc(CNCc2ccc(CN3CCCNCCNCCCNCC3)cc2)nc1 (library stock concentration (final ~1000-fold dilution): 10 mM water)?
NF-kB SEAP reporter activity ([2]; agonist: LPS (TLR4) 0.1 ug/mL): 1.02; NF-kB SEAP reporter activity [2, 6]: 0.926; NF-kB SEAP reporter activity [2, 7]: 1.05; NF-kB SEAP reporter activity [2, 8]: 1.15

Which results are given for Cc1ccc(NCCCc2ccccc2)c(N)c1 (library stock concentration (final ~1000-fold dilution): 10 mM)?
NF-kB SEAP reporter activity ([2]; agonist: LPS (TLR4) 0.1 ug/mL): 0.469; NF-kB SEAP reporter activity [2, 6]: 0.541; NF-kB SEAP reporter activity [2, 7]: 0.308; NF-kB SEAP reporter activity [2, 8]: 0.248; NF-kB SEAP reporter activity ([3]; agonist: LPS (TLR4) 0.1 ug/mL): 0.665 ± 0.2; NF-kB SEAP reporter activity [3, 6]: 0.533 ± 0.15; NF-kB SEAP reporter activity [3, 7]: 0.399 ± 0.13; NF-kB SEAP reporter activity [3, 8]: 0.432 ± 0.1

Cc1ccc(NCCCc2ccccc2)c(N)c1 was tested. Which “NF-kB SEAP reporter activity” value [1, 9] did it give?
Its value is 1.08 ± 0.13.

What about the “NF-kB SEAP reporter activity” value [1, 10] of the same compound?
The value was 0.908 ± 0.33.

What about the “NF-kB SEAP reporter activity” value [1, 4] of the same compound?
Its value is 1.02.

What about the “NF-kB SEAP reporter activity” value [1, 5] of the same compound?
The value was 0.694.

With C#Cc1cccc(Nc2ncnc3cc4c(cc23)OCCOCCOCCO4)c1 as the compound, how does the “NF-kB SEAP reporter activity” value [1, 4] read?
The value was 1.06.

What about the “NF-kB SEAP reporter activity” value [1, 5] of the same compound?
Its value is 1.53.

With C#Cc1cccc(Nc2ncnc3cc4c(cc23)OCCOCCOCCO4)c1 (library stock concentration (final ~1000-fold dilution): 10 mM) as the compound, how does the “NF-kB SEAP reporter activity” value ([2]; agonist: LPS (TLR4) 0.1 ug/mL) read?
Its value is 1.8.

And the “NF-kB SEAP reporter activity” value [2, 6]?
Its value is 0.972.

And the “NF-kB SEAP reporter activity” value [2, 7]?
Its value is 1.16.

And the “NF-kB SEAP reporter activity” value [2, 8]?
The value was 1.44.

C=CC(=O)Nc1cc(Nc2nccc(-c3cn(C)c4ccccc34)n2)c(OC)cc1N(C)CCN(C)C (library stock concentration (final ~1000-fold dilution): 10 mM) was tested. Which “NF-kB SEAP reporter activity” value ([3]; agonist: LPS (TLR4) 0.1 ug/mL) did it give?
Its value is 0.691.

What about the “NF-kB SEAP reporter activity” value [3, 6] of the same compound?
The value was 0.19.

And the “NF-kB SEAP reporter activity” value [3, 7]?
The value was 0.387.

And the “NF-kB SEAP reporter activity” value [3, 8]?
The value was 0.266.

For C=CC(=O)Nc1cc(Nc2nccc(-c3cn(C)c4ccccc34)n2)c(OC)cc1N(C)CCN(C)C, which “NF-kB SEAP reporter activity” value [1, 9] is on record?
Its value is 0.154.

What about the “NF-kB SEAP reporter activity” value [1, 10] of the same compound?
Its value is 0.23.

Which results are given for CC1=C(C(=O)Nc2ccc3[nH]ncc3c2)C(c2ccc(F)cc2)NC(=O)N1 (stereo not given) (library stock concentration (final ~1000-fold dilution): 10 mM)?
NF-kB SEAP reporter activity ([2]; agonist: LPS (TLR4) 0.1 ug/mL): 0.785; NF-kB SEAP reporter activity [2, 6]: 1.29; NF-kB SEAP reporter activity [2, 7]: 1.12; NF-kB SEAP reporter activity [2, 8]: 1.56

For CC1=C(C(=O)Nc2ccc3[nH]ncc3c2)C(c2ccc(F)cc2)NC(=O)N1 (stereo not given), which “NF-kB SEAP reporter activity” value [1, 4] is on record?
The value was 1.12.

What about the “NF-kB SEAP reporter activity” value [1, 5] of the same compound?
The value was 0.995.

What does the source list for COc1cc2c(c(OC)c1OC)-c1c(cc3c(c1OC)OCO3)CC(C)C(C)C2 (stereo not given) (library stock concentration (final ~1000-fold dilution): 10 mM)?
NF-kB SEAP reporter activity ([2]; agonist: LPS (TLR4) 0.1 ug/mL): 1.31 and 0.712; NF-kB SEAP reporter activity [2, 6]: 0.577 and 0.583; NF-kB SEAP reporter activity [2, 7]: 1 and 0.433; NF-kB SEAP reporter activity [2, 8]: 0.682 and 0.522

CCOC(=O)c1cnc2ccc(-c3cncc(NS(=O)(=O)c4ccccc4)c3)cn12 (library stock concentration (final ~1000-fold dilution): 10 mM) was tested. Which “NF-kB SEAP reporter activity” value ([3]; agonist: LPS (TLR4) 0.1 ug/mL) did it give?
Its value is 7.43.

What about the “NF-kB SEAP reporter activity” value [3, 6] of the same compound?
The value was 2.4.

What about the “NF-kB SEAP reporter activity” value [3, 7] of the same compound?
The value was 1.68.

And the “NF-kB SEAP reporter activity” value [3, 8]?
Its value is 3.96.
